Data as given in publication PMC12455566, “Structural Elucidation and Covalent Modulation of the Autorepressed Orphan Nuclear Receptor NR2F6” (ACS Chemical Biology, 2025).

How the values were obtained:
[1] = test system: NR2F6^C203A LBD; assay: TR-FRET coregulator recruitment with covalent probes, C203A; format: biochemical, human; conditions: NSD1, BCL11A-1, BCL11A-2 recruitment
Method: (§1) by sequencing (Baseclear).
(§2) with 0.1% (v/v) formic acid.
(§3) to deconvolute the m/z spectra.
(§4) Crystals grew within three days
(§5) frozen in liquid nitrogen.
(§6) generated using AceDRG 20.
(§7) Plates were incubated for one
(§8) nm) using the supplier recommended HTRF settings.
(§9) fitted using a four-parameter logistic equation.
(§10) peptide background. Data recorded in triplicate.

[2] = target: T1, wildtype NR2F6 LBD (Homo sapiens, UniProt P10588); assay: TR-FRET coregulator recruitment upon full ligation, wildtype; format: biochemical; conditions: relative to DMSO, three independent experiments
T1 sequence (P10588 165-393 limits assumed): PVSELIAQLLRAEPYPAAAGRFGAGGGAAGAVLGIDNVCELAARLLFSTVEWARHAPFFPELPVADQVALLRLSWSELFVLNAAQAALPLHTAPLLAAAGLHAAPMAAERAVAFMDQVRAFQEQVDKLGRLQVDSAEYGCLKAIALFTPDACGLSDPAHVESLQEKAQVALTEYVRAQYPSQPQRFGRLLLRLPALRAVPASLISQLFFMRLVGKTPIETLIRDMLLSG
Method: as §1, §2, §3, §4, §5, §6, §7, §8, §9, §10

[3] = test system: LBD of NR2F2; conditions: targeting the LBD of NR2F2; cited from earlier work
Text: As a true orphan receptor, endogenous ligands modulating NR2F6 activity remain unknown. […] A metabolite screening identified 1-deoxysphingolipids as binders of the NR2F1/NR2F2 LBD, promoting NR2F1/NR2F2 transcriptional activity. […] A r ...

[4] = target: T2, NR2F6 LBD (Homo sapiens, UniProt P10588); assay: TR-FRET recruitment of NR coregulator peptides in the presence of ligand; format: biochemical; set-up: encoding the human NR2F6 LBD (residues 164-404) with an N-terminal; made in house; host or cells: E. coli BL21(DE3); conditions: 50 µM non-covalent ligand, technical triplicate
T2 sequence (P10588 164-404): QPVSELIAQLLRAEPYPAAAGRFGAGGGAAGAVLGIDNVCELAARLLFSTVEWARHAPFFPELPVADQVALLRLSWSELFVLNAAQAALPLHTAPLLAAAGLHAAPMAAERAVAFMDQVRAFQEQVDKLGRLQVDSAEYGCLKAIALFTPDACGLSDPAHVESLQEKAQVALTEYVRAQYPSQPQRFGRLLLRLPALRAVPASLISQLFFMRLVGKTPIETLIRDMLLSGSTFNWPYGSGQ
Method: as §1, §2, §3, §4, §5, §6, §7, §8, §9, §10

O=C(Nc1ccccc1O)c1cc([N+](=O)[O-])ccc1Cl [III]
inhibitory activity after C203A mutation (in words) [1]: lost almost all of their inhibitory activity
fold reduction in BCL11A-1 recruitment [2]: 9 fold
fold reduction in NSD1 recruitment [2]: 24 fold
inhibition of BCL11A-2 recruitment (in words) [2]: complete inhibition

COc1ccc(O)c2ccccc12 [4-methoxynaphthol]
inhibition (in words) [3]: inhibitors targeting the LBD of NR2F2

CC1=C(/C=C/C(C)=C\C=C\C(C)=C\C(=O)O)C(C)(C)CCC1 [9-cis-retinoic acid]
effect on recruitment of F/YSXXLXXL/Y motifs (in words) [4]: failed to significantly alter recruitment of F/YSXXLXXL/Y motifs
recruitment of canonical NR coregulators (in words) [4]: failed to significantly alter recruitment of F/YSXXLXXL/Y motifs or induce recruitment of canonical NR coregulators

Cc1c(C)c2c(c(C)c1O)CCC(C)(COc1ccc(CC3SC(=O)NC3=O)cc1)O2 (stereo not drawn) [troglitazone]
effect on recruitment of F/YSXXLXXL/Y motifs (in words) [4]: failed to significantly alter recruitment of F/YSXXLXXL/Y motifs

COc1ccc(CCNc2ncnc3sc(C)cc23)cc1OC.Cl [CIA1]
inhibition (in words) [3]: inhibitors targeting the LBD of NR2F2
